Results on 153 variants are retold here after a collection of fitness landscapes (doi:10.1126/science.1257360).

The list shows a part of the results.

The labels stand for the following.
B1: PhoQ; a variant is named by its letters at X, in order, P23837 (parent)
chain: MKKLLRLFFPLSLRVRFLLATAAVVLVLSLAYGMVALIGYSVSFDKTTFRLLRGESNLFYTLAKWENNKLHVELPENIDKQSPTMTLIYDENGQLLWAQRDVPWLMKMIQPDWLKSNGFHEIEADVNDTSLLLSGDHSIQQQLQEVREDDDDAEMTHSVAVNVYPATSRMPKLTIVVVDTIPVELKSSYMVWSWFIYVLSANLLLVIPLLWVAAWWSLRPIEALAKEVRELEEHNRELLNPATTRELTSLVRNLNRLLKSERERYDKYRTTLTDLTHSLKTPLXXLQXXLRSLRSEKMSVSDAEPVMLEQISRISQQIGYYLHRASMRGGTLLSRELHPVAPLLDNLTSALNKVYQRKGVNISLDISPEISFVGEQNDFVEVMGNVLDNACKYCLEFVEISARQTDEHLYIVVEDDGPGIPLSKREVIFDRGQRVDTLRPGQGVGLAVAREITEQYEGKIVAGESMLGGARMEVIFGRQHSAPKDE

The assay covers variants of B1. Put plainly: enrichment ratio after two sorts for PhoP signalling (ratio (wild type AVST 3.29)); higher = more functional. The following applies: with PhoP (E. coli).
For QVIQ, the enrichment ratio is at most 0.25.
In the case of IVAC it was at most 0.25; in that of NSLA, at most 0.25; in that of NCVK, at most 0.25.
Regarding FAYL, the enrichment ratio is at most 0.25.
Turning to LWNP, the enrichment ratio was at most 0.25.
Under ESYA stands at most 0.25; under RKAW, at most 0.25.
In the case of SDVE it was at most 0.25.
As to FCWK, the enrichment ratio is at most 0.25.
Under GISH stands 9.65; under WNPE, at most 0.25; under GPCA, at most 0.25.
Regarding NHAR, the enrichment ratio was at most 0.25.
In the case of PFCT it was at most 0.25.
In the case of NNPY it was at most 0.25; in that of TSYC, 7.47.
In the case of HPYL it was at most 0.25.
As for EMEF, the enrichment ratio was at most 0.25.
Under TNMI stands 11.7.
Take SNVA: the enrichment ratio amounted to 6.33.
In the case of NHGE it was at most 0.25; in that of GGKY, at most 0.25; in that of SACY, 8.86.
In the case of NAIM it was at most 0.25; in that of RHCC, at most 0.25.
Regarding HQDS, the enrichment ratio is at most 0.25.
Regarding YYDI, the enrichment ratio was at most 0.25.
In the case of HMQW it was at most 0.25.
On to PGCQ, for which the enrichment ratio is at most 0.25.
Consider PKQV, for which the enrichment ratio was at most 0.25.
As to NSLD, the enrichment ratio was at most 0.25.
In the case of TNQK it was at most 0.25; in that of EAST, at most 0.25; in that of IPGR, at most 0.25.
For the variant YDNS, the enrichment ratio was at most 0.25.
Under ECGD stands at most 0.25; under ILCY, at most 0.25.
Consider HTKF, for which the enrichment ratio is at most 0.25.
In the case of GFRI it was at most 0.25.
In the case of RIMM it was at most 0.25; in that of IYAV, at most 0.25; in that of FQIH, at most 0.25.
Under QKKH stands at most 0.25; under IISQ, at most 0.25.
For the variant WHSH, the enrichment ratio is at most 0.25.
Under WDYS stands at most 0.25; under WTKQ, at most 0.25; under FSCR, at most 0.25.
Turning to ADPH, the enrichment ratio is at most 0.25.
Under QFHV stands at most 0.25.
For DDPA, the enrichment ratio is at most 0.25.
Turning to PTRL, the enrichment ratio is at most 0.25.
With AHPH, the enrichment ratio is at most 0.25.
For the variant MHMW, the enrichment ratio is at most 0.25.
In the case of WRAC it was at most 0.25; in that of LDNT, 2.01.
With SNVV, the enrichment ratio amounted to 7.87.
On to ATHH, for which the enrichment ratio is at most 0.25.
In the case of WGWI it was at most 0.25; in that of PQVA, at most 0.25; in that of LKNI, at most 0.25.
Under DLDM stands at most 0.25; under SSLG, 16.1.
Take LPTI: the enrichment ratio is at most 0.25.
Take DRST: the enrichment ratio is at most 0.25.
Consider PDIH, for which the enrichment ratio is at most 0.25.
For the variant QTLC, the enrichment ratio was at most 0.25.
As for VRNH, the enrichment ratio was at most 0.25.
Under IHLG stands at most 0.25; under QYPC, at most 0.25; under PSFI, at most 0.25.
As for SYMC, the enrichment ratio was at most 0.25.
As for PVQA, the enrichment ratio was at most 0.25.
As to LCKY, the enrichment ratio is at most 0.25.
Turning to SDLG, the enrichment ratio is 5.16.
As for GPFL, the enrichment ratio was at most 0.25.
Under MYFI stands at most 0.25; under VWTF, at most 0.25; under QNGS, 3.28.
Take QQKA: the enrichment ratio is at most 0.25.
Under RFHF stands at most 0.25; under EHGR, at most 0.25.
Take FSIL: the enrichment ratio was 4.53.
In the case of FCRL it was at most 0.25; in that of YIRT, at most 0.25; in that of VWDA, at most 0.25.
In the case of FDHV it was at most 0.25; in that of DICP, at most 0.25.
Under SQID stands at most 0.25.
PCSA: the enrichment ratio is at most 0.25.
In the case of KAQC it was at most 0.25; in that of LFED, at most 0.25; in that of HGTI, at most 0.25.
In the case of WNSE it was at most 0.25; in that of QASG, 17.4.
In the case of RSTA it was at most 0.25; in that of LGAC, at most 0.25.
Turning to AQIK, the enrichment ratio is at most 0.25.
Under WQMG stands at most 0.25; under HTNT, at most 0.25.
In the case of GVRT it was at most 0.25.
Under DKFN stands at most 0.25.
In the case of DLDR, the enrichment ratio was at most 0.25.
Turning to HWFI, the enrichment ratio is at most 0.25.
On to VWTA, for which the enrichment ratio is at most 0.25.
On to HICY, for which the enrichment ratio is at most 0.25.
On to TRFY, for which the enrichment ratio was at most 0.25.
Under SMFI stands at most 0.25; under SCKF, at most 0.25.
As to EIAI, the enrichment ratio is at most 0.25.
Under SRIA stands 0.34; under MRLN, at most 0.25; under WFCG, at most 0.25.
In the case of MPVG it was at most 0.25; in that of LHLV, at most 0.25; in that of TQFK, at most 0.25.
On to TTQL, for which the enrichment ratio was determined as 5.72.
Take FYKI: the enrichment ratio is at most 0.25.
As to FHGS, the enrichment ratio was at most 0.25.
Take NFSD: the enrichment ratio was at most 0.25.
In the case of IRAF it was at most 0.25; in that of SWIQ, at most 0.25; in that of ATLC, 13.2.
Consider KNSM, for which the enrichment ratio was at most 0.25.
With IPVY, the enrichment ratio is at most 0.25.
Under GIHG stands at most 0.25.
Consider VETY, for which the enrichment ratio worked out at 0.319.
Under LYAM stands at most 0.25.
In the case of RAIE it was at most 0.25; in that of FNPI, at most 0.25; in that of ALFD, at most 0.25.
Under WHFC stands at most 0.25; under FHQN, at most 0.25; under VTIM, 1.04.
Turning to RSPR, the enrichment ratio was at most 0.25.
Take IGID: the enrichment ratio was at most 0.25.
In the case of LIMQ it was at most 0.25.
Under QSTA stands at most 0.25.
In the case of PCEF, the enrichment ratio is at most 0.25.
With FQQT, the enrichment ratio was at most 0.25.
Consider VSFE, for which the enrichment ratio is at most 0.25.
For the variant YNRH, the enrichment ratio is at most 0.25.
For the variant LGEW, the enrichment ratio was at most 0.25.
On to KSVY, for which the enrichment ratio was at most 0.25.
With AGWR, the enrichment ratio is at most 0.25.
Under IHGQ stands at most 0.25.
In the case of HAFD it was at most 0.25; in that of SITV, 11.8.
In the case of GCMP it was at most 0.25.
On to INMH, for which the enrichment ratio is at most 0.25.
In the case of YFWW it was at most 0.25; in that of EFDT, at most 0.25.
